Measured values as given in the BET-seq Pho4 binding data (Le et al. 2018).
The other results are listed elsewhere or left out. The energies were worked out here from pooled read counts, against the library average; single values are noisy.

The sequences below were run against T1, Pho4 (S. cerevisiae) (UniProt P07270) (assay: relative binding free energy (BET-seq); higher = weaker binding). Details: reference: library average.
T1 sequence: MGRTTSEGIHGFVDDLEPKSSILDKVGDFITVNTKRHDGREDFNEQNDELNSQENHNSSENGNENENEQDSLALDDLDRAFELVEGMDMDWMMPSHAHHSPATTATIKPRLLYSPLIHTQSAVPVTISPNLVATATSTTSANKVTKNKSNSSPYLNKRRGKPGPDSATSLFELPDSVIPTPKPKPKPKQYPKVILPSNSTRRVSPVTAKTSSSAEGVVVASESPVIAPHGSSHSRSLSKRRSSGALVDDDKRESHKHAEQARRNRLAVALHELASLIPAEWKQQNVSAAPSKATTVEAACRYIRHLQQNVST

| Sequence | relative binding free energy |
| --- | --- |
| GTATGCACGTGGGAGC | -0.13 kcal/mol |
| GTATCCACGTGTAAGG | 0.27 kcal/mol |
| TGCTTCACGTGGTTTA | 0.22 kcal/mol |
| ACTATCACGTGAGGGG | 0.22 kcal/mol |
| TAACTCACGTGTGGGT | 0.37 kcal/mol |
| GACGGCACGTGGTATG | -0.11 kcal/mol |
| GGGAACACGTGTGTAG | 0.05 kcal/mol |
| TGCTTCACGTGAGGAG | 0.27 kcal/mol |
| GGCGTCACGTGGGGTA | -0.18 kcal/mol |
| TTTATCACGTGTTAGG | 0.18 kcal/mol |
| TTTGACACGTGCGGGA | -0.05 kcal/mol |
| GATGTCACGTGTTATC | 0.18 kcal/mol |
| GGATGCACGTGTAGGG | -0.05 kcal/mol |
| TATATCACGTGGTTTT | 0.19 kcal/mol |
| TGGGGCACGTGTGGAC | 0.03 kcal/mol |
| TGTAGCACGTGATATT | 0.08 kcal/mol |
| TAGGGCACGTGCGGAG | -0.26 kcal/mol |
| TGGAGCACGTGGGTAC | -0.13 kcal/mol |
| GGAGACACGTGTGGTG | -0.04 kcal/mol |
| GGAAACACGTGTGTAG | 0.14 kcal/mol |
| AGTAACACGTGGTGCA | -0.13 kcal/mol |
| TGTGGCACGTGTGACC | 0.08 kcal/mol |
| TAATACACGTGTTAAG | 0.11 kcal/mol |

| Sequence | relative binding free energy |
| --- | --- |
| GGAGTCACGTGGGTGT | -0.02 kcal/mol |
| GAAATCACGTGGTAGG | 0.15 kcal/mol |
| TTGTGCACGTGGCGAG | -0.16 kcal/mol |
| TAGCGCACGTGTTAGT | -0.06 kcal/mol |
| TTAATCACGTGATATA | 0.19 kcal/mol |
| GGCGTCACGTGGTATA | 0.06 kcal/mol |
| GAGGACACGTGGGCAG | -0.02 kcal/mol |
| CAGCGCACGTGGGGTG | -0.32 kcal/mol |
| CAGGACACGTGTGTCG | 0.24 kcal/mol |
| ATTTTCACGTGATTGA | 0.45 kcal/mol |
| ATGAACACGTGAGTTA | 0.2 kcal/mol |
| AATTTCACGTGACTTT | 0.33 kcal/mol |
| AGTCTCACGTGATTGT | 0.14 kcal/mol |
| GAGTGCACGTGCGAAG | 0.1 kcal/mol |
| AAGTGCACGTGGAGAT | 0 kcal/mol |
| TGGTACACGTGGATGT | 0.17 kcal/mol |
| TTCTACACGTGGGAGG | 0.05 kcal/mol |
| AGTACCACGTGTTAGG | -0.02 kcal/mol |
| AGTGTCACGTGTATCT | 0 kcal/mol |
| GTTACCACGTGTATGT | -0.05 kcal/mol |
| AATAGCACGTGGGTAT | -0.26 kcal/mol |
| TCCGGCACGTGGCGGG | -0.06 kcal/mol |
| CTGGCCACGTGTCGGG | 0.01 kcal/mol |

| Sequence | relative binding free energy |
| --- | --- |
| TTAATCACGTGAATGT | 0.4 kcal/mol |
| TGTTGCACGTGCGTGA | -0.11 kcal/mol |
| ATAGTCACGTGTGAGG | 0.19 kcal/mol |
| GGTTTCACGTGTTCGA | 0.23 kcal/mol |
| TTGACCACGTGTGGCG | -0.04 kcal/mol |
| AGGTTCACGTGGCTGA | 0.14 kcal/mol |
| GGTATCACGTGAGTGA | 0.2 kcal/mol |
| TGGTTCACGTGAGCAA | 0.37 kcal/mol |
| TGCGGCACGTGTTTGA | -0.03 kcal/mol |
| AGGGTCACGTGAGCGA | 0.27 kcal/mol |
| AGTTTCACGTGTATAC | 0.23 kcal/mol |
| ATGAGCACGTGGTTTA | -0.06 kcal/mol |
| TGGTCCACGTGTGGGG | 0.04 kcal/mol |
| ACGTGCACGTGAGTTA | 0.04 kcal/mol |
| TTATGCACGTGTTGGT | 0.02 kcal/mol |
| AATTGCACGTGTTAGT | 0.04 kcal/mol |
| ATTAGCACGTGGTGCT | -0.12 kcal/mol |
| AGGATCACGTGAGGTT | 0.25 kcal/mol |
| TCGGTCACGTGTCGAT | 0.14 kcal/mol |
| TAAGACACGTGTGGGA | 0.03 kcal/mol |
| GTTGGCACGTGATAGT | 0.06 kcal/mol |
| GAGGACACGTGGGGTG | -0.09 kcal/mol |
| TTGCGCACGTGGAGGA | -0.03 kcal/mol |

| Sequence | relative binding free energy |
| --- | --- |
| AGGGGCACGTGCGTCA | -0.19 kcal/mol |
| CTTTGCACGTGTAGGG | 0.05 kcal/mol |
| AGTGACACGTGGATCG | 0.15 kcal/mol |
| TACTTCACGTGGAGTG | 0.29 kcal/mol |
| TTAAACACGTGGATGC | 0.1 kcal/mol |
| TGTTTCACGTGTTCCG | 0.21 kcal/mol |
| TTGTCCACGTGATTTA | 0.19 kcal/mol |
| GATCGCACGTGGTGTG | -0.14 kcal/mol |
| TATTACACGTGGATGA | 0.17 kcal/mol |
| TTGCGCACGTGAGCGT | -0.03 kcal/mol |
| GGCAGCACGTGGAGTG | -0.17 kcal/mol |
| CTAGTCACGTGTTGAG | 0.03 kcal/mol |
| CTGGGCACGTGTTTCT | -0.07 kcal/mol |
| GCGGCCACGTGAAGGG | 0.27 kcal/mol |
| TGGGGCACGTGCGACG | -0.12 kcal/mol |
| TTTCACACGTGTGGGC | 0.12 kcal/mol |
| GGGTGCACGTGACTTG | 0.2 kcal/mol |
| ATGGACACGTGCTTTT | 0.03 kcal/mol |
| GAGTTCACGTGGAGTA | 0.35 kcal/mol |
| GGAATCACGTGGGGGA | 0.11 kcal/mol |
| CGTATCACGTGATTTT | 0.17 kcal/mol |
| TGGTTCACGTGCAGCG | 0.15 kcal/mol |
| TTGAGCACGTGAAAGA | 0.51 kcal/mol |

| Sequence | relative binding free energy |
| --- | --- |
| TATTTCACGTGATACT | 0.16 kcal/mol |
| TCGGGCACGTGCAGTT | -0.17 kcal/mol |
| TTGTTCACGTGATGAG | 0.37 kcal/mol |
| GTAGACACGTGGTGTC | 0.06 kcal/mol |
| CGGGGCACGTGCGATA | -0.08 kcal/mol |
| CTAGACACGTGTTGGG | 0.03 kcal/mol |
| TTTTTCACGTGAAGGG | 0.37 kcal/mol |
| TGTCTCACGTGTGGGA | 0.22 kcal/mol |
| ATTAGCACGTGTGTTC | 0 kcal/mol |
| AAGTACACGTGGTTAT | 0.04 kcal/mol |
| ATCTTCACGTGTGTAT | 0.19 kcal/mol |
| CTGTTCACGTGGGGTG | 0.08 kcal/mol |
| TTGTACACGTGCTGTC | 0.11 kcal/mol |
| CGATTCACGTGGTGAG | 0.34 kcal/mol |
| ACATTCACGTGTGTGT | 0.11 kcal/mol |
| GTTTACACGTGAATTA | 0.39 kcal/mol |
| TCAGGCACGTGTGGCG | -0.06 kcal/mol |
| GACTGCACGTGGTGGG | 0.11 kcal/mol |
| TAGAGCACGTGAGCTT | 0.28 kcal/mol |
| AGTTTCACGTGTGTTC | 0.24 kcal/mol |
| GAATACACGTGGGGGC | 0.03 kcal/mol |
| GTCGGCACGTGGAATT | 0.17 kcal/mol |
| TTTTTCACGTGCTTAC | 0.24 kcal/mol |
